# Laboratory results from the supplement of paper PMC3334620.
# Over roughly 33,000 sequences, “E-score (-0.5 to 0.5)” has its median near -0.035; the highest 2% begin near 0.34. The list shows a part of the results.
# Target: T1, Mot3 (UniProt P54785)
# T1 sequence: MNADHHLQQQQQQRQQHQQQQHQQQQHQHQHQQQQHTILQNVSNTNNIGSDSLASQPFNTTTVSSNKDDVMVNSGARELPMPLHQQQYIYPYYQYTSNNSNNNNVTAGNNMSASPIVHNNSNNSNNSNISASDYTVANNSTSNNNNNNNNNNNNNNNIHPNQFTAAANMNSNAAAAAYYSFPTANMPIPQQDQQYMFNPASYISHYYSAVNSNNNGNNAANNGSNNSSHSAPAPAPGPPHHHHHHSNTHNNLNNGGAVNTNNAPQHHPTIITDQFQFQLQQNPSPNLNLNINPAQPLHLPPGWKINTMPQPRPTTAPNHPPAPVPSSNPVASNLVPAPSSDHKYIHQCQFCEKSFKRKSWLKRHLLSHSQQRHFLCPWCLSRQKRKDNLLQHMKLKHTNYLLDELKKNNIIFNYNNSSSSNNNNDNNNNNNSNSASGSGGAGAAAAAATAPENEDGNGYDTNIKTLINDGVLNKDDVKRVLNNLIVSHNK
# Assay: PBM E-score (8-mer binding enrichment) (E-score (-0.5 to 0.5)); higher = stronger / more preferred TF binding; most listed sequences are background and not binding sites
# Details: protein concentration: 200 nM; construct: GST-full length
# Description: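 Universal 'all 10-mer' protein binding microarrays (Agilent AMADID 015681) probed with GST-tagged S. cerevisiae TFs (full-length or DBD) made by in vitro transcription/translation (PURExpress), about 100-200 nM. Bound TF was detected with fluorescent anti-GST. Each ungapped 8-mer (which stands for itself and its reverse complement) is scored by the PBM enrichment score (E-score), a modified Wilcoxon-Mann-Whitney statistic from -0.5 to +0.5, computed with the Universal PBM Analysis Suite. Scale: above 0.35 generally sequence-specific binding.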
row,Sequence,PBM E-score
1,ATGACCAG,0.199
2,AAAATGTA,0.286
3,ACGTTCGA,0.0305
4,CCGAAAAA,0.121
5,CCATACAA,0.0803
6,GTTCAGGA,-0.0132
7,AAAAATCA,0.0696
8,GGGTGCGA,-0.237
9,TGTTCAAA,0.199
10,AGGTGTCA,0.0915
11,CTTAGGAA,0.29
12,GAGACGAC,-0.217
13,CAAATTAC,0.274
14,GTCTGGCA,-0.295
15,AACTTAGG,0.172
16,ACGATAGG,0.117
17,AGAGTAAC,-0.0792
18,GACGTTAA,0.206
19,TCAACTAA,0.144
20,ACCGTAGT,-0.133
21,TGTGTAAA,0.416
22,ATCATAGG,0.00869

row,Sequence,PBM E-score
1,ATGAATTC,0.116
2,AAACCCAA,0.134
3,CAATCACA,0.147
4,AACAATCA,0.142
5,GCGTTAGC,0.125
6,ACCCGAAG,-0.0962
7,CACTTTCC,0.0399
8,CTGGGGTA,-0.113
9,GCCCACCC,-0.103
10,GTTACTAA,0.183
11,CTGTTCGC,0.117
12,AATCGCCT,0.0788
13,ATGGCCAT,-0.171
14,ATACCGTA,0.054
15,CTTAGATA,-0.0179
16,GGGTCTAA,-0.0974
17,GTCGGGTA,0.142
18,ACCCGCGC,0.0648
19,CGACCTAC,-0.114
20,GATGGGGC,-0.129
21,CCAAACTC,-0.0876
22,AACGCTCG,-0.0681

row,Sequence,PBM E-score
1,AAAATCGC,-0.111
2,CGGGGAAC,-0.0973
3,CCGTACAG,-0.0174
4,GGCCTACA,0.00717
5,ATTTACTA,0.113
6,GTATATGA,0.129
7,ACGGCAGG,-0.17
8,GTTGGAGA,0.0902
9,CTCTCCCA,-0.0541
10,GGGTTCAA,-0.039
11,ATTTTTCG,0.115
12,CCGGATAA,-0.131
13,GTTGTGAA,0.133
14,TCCTCTCA,-0.133
15,GATGGAAA,-0.0458
16,ACCAAGTA,0.101
17,ACGGGAAT,-0.0815
18,CTATTGTC,-0.253
19,ATAGACCG,0.0362
20,CTGTTGCC,0.317
21,GACTTTTA,0.0474
22,AAGTGATT,0.048

row,Sequence,PBM E-score
1,ATTCCTCC,-0.0184
2,CTAACGAA,-0.101
3,GGGTGAAC,-0.0631
4,CTGTTCGA,-0.0328
5,GGTTAATA,0.133
6,CAGCTGGG,-0.0915
7,CTGCCGTC,-0.305
8,GAAATCCA,-0.0415
9,CTTCGCTC,-0.244
10,AGGGACTG,-0.226
11,ATACGCGG,0.177
12,ATAGCCCG,-0.107
13,ACGATTAG,-0.0892
14,GTGTTTAA,0.22
15,GCAAAAGA,-0.0853
16,ATCAGATC,-0.196
17,CAATTGTA,-0.0432
18,GATGGTAC,-0.0492
19,ACAACCCC,-0.0279
20,ATCAAACC,-0.0351
21,GCATAGCC,-0.127
22,AGACTACC,-0.12

row,Sequence,PBM E-score
1,AGCACACT,-0.0522
2,AAGCGGTC,-0.228
3,ATCCAGTC,-0.156
4,GCGGTACA,-0.0033
5,ACGTTCAG,-0.084
6,AACGAGTA,0.162
7,CGTGGATA,0.112
8,GGGTTACC,-0.0332
9,GTTGGCTA,-0.14
10,ACGCGCCC,0.0896
11,AACAGATC,0.00801
12,CCATTATC,-0.00018
13,CCAGTCCG,-0.131
14,ATAGCCTA,0.158
15,AGGCTTAT,-0.0461
16,ATAACGGA,0.0368
17,GTCTTAGA,-0.0124
18,CGTGCAAC,0.0126
19,AATACAGG,0.287
20,GCTGCTAA,-0.0248
21,ACATGAAT,0.294
22,CGCTCTCC,-0.295
